Test results published in the supplement of paper PMC10126150.
Sequences with one replicate were seen in a single cluster, so their values are uncertain.

System: ATP
Assay: switch fluorescence ratio, 500 uM ATP over buffer (Cy3 cluster intensity, sum of 5 cycles each) (fold (ratio)); higher = stronger signal-on switching upon ATP binding; sequences stand for … in TCGTCGGCAGCGTCAGATGTGTATAAGAGACAGTTTTTTTTTTTTTTTTTTTTTTTTT…TC
Settings: aptamer strand: ATP DNA aptamer (quencher-CACCTGGGGGAGTATTGCGGAGGAAGG + anchor), 100 nM annealed; ATP concentration: 500 uM; one replicate
Outline: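 For every switch-domain sequence, the fluorescence ratio is the mean of per-cluster values, each being summed target-cycle Cy3 intensity over summed buffer-cycle Cy3 intensity. Clusters outside 100-1000 RFU were excluded. On a modified Illumina MiSeq flow-cell, the Cy3-labelled switching-strand clusters were annealed to 100 nM quencher-labelled ATP aptamer, imaged in selection buffer and then after 15 min with 500 uM ATP at 22 °C. Five such cycles were run, with NaOH stripping and re-annealing between them.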
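Note: ATP exposure 15 min at 22 °C before imaging.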

Q: CTGCTGGGAC was tested. Which switch fluorescence ratio did it give?
A: 1.25

Q: Which switch fluorescence ratio does the source give for TAACCTAGTG here?
A: 0.978

Q: How did the switch fluorescence ratio turn out when GAATATGGCA was run?
A: 1.01

Q: How did the switch fluorescence ratio turn out when TTTCTTGCAT was run?
A: 1.01

Q: Which switch fluorescence ratio does the source give for TGCGCTGTTC here?
A: 1.26

Q: With ATTGTGTTTC as the sequence, how does the switch fluorescence ratio read?
A: 1.02

Q: How did the switch fluorescence ratio turn out when GTAACGGCAA was run?
A: 1.31

Q: TCACGTTTCG was tested. Which switch fluorescence ratio did it give?
A: 1.01

Q: How did the switch fluorescence ratio turn out when GTGGGTAGTA was run?
A: 0.985

Q: AGTGATTTCC was tested. Which switch fluorescence ratio did it give?
A: 1.03

Q: With CGACTCATCT as the sequence, how does the switch fluorescence ratio read?
A: 1.09

Q: For TAGTAATACA, which switch fluorescence ratio is on record?
A: 1.62

Q: Which switch fluorescence ratio does the source give for CGGGGTGGC here?
A: 1.04

Q: For GACATGCTTA, which switch fluorescence ratio is on record?
A: 1.02

Q: How did the switch fluorescence ratio turn out when TACCCTTCTC was run?
A: 1.46

Q: For TCGGTATGTA, which switch fluorescence ratio is on record?
A: 1.01

Q: For CGGCCCCGA, which switch fluorescence ratio is on record?
A: 1.01

Q: Which switch fluorescence ratio does the source give for CTCATCGCTT here?
A: 1.12

Q: ACGGAAGG was tested. Which switch fluorescence ratio did it give?
A: 1.05

Q: AGTGACGAGC was tested. Which switch fluorescence ratio did it give?
A: 1.02

Q: With ATGTTGCCGC as the sequence, how does the switch fluorescence ratio read?
A: 0.946

Q: For ATTAGGCCT, which switch fluorescence ratio is on record?
A: 1.02

Q: TCCGTATCGG was tested. Which switch fluorescence ratio did it give?
A: 0.955

Q: Which switch fluorescence ratio does the source give for CAGTCCTATT here?
A: 0.981

Q: How did the switch fluorescence ratio turn out when AAGTCGCAGC was run?
A: 1.03

Q: For CCCCCAAAAT, which switch fluorescence ratio is on record?
A: 1.61

Q: Which switch fluorescence ratio does the source give for GAATAAAACT here?
A: 1.04

Q: How did the switch fluorescence ratio turn out when GAAGTTTATG was run?
A: 0.969

Q: Which switch fluorescence ratio does the source give for CGTTGTTATA here?
A: 1.04

Q: With ACATAGTTGC as the sequence, how does the switch fluorescence ratio read?
A: 0.993

Q: For CGAAGCTGGG, which switch fluorescence ratio is on record?
A: 1.55

Q: TAAACCCGTC was tested. Which switch fluorescence ratio did it give?
A: 1.23

Q: For TACTTGCTGC, which switch fluorescence ratio is on record?
A: 1.07

Q: Which switch fluorescence ratio does the source give for TTGCGAAGCA here?
A: 0.96

Q: Which switch fluorescence ratio does the source give for GATAGAATCT here?
A: 1.03

Q: ATGAAAATG was tested. Which switch fluorescence ratio did it give?
A: 1.02

Q: How did the switch fluorescence ratio turn out when GTTTGTTGCT was run?
A: 0.984

Q: How did the switch fluorescence ratio turn out when AACGGTTGAC was run?
A: 1.09

Q: With TGGTCATCAA as the sequence, how does the switch fluorescence ratio read?
A: 0.997

Q: GTTTACCTTT was tested. Which switch fluorescence ratio did it give?
A: 0.996

Q: How did the switch fluorescence ratio turn out when TATGGAGTAA was run?
A: 1.03

Q: How did the switch fluorescence ratio turn out when ATTGTCTGGT was run?
A: 0.972

Q: Which switch fluorescence ratio does the source give for GATTTATAAC here?
A: 0.979

Q: With GACTAGCGGG as the sequence, how does the switch fluorescence ratio read?
A: 0.961

Q: For CTGGTTGGAC, which switch fluorescence ratio is on record?
A: 1.04

Q: CGCCTTTCCG was tested. Which switch fluorescence ratio did it give?
A: 1.18

Q: With AATGGTGTTT as the sequence, how does the switch fluorescence ratio read?
A: 0.968

Q: GATCAGCCAG was tested. Which switch fluorescence ratio did it give?
A: 1.03

Q: For TGAGTTTA, which switch fluorescence ratio is on record?
A: 1

Q: With GCTTTAAGGC as the sequence, how does the switch fluorescence ratio read?
A: 1.03

Q: With CCACCGTAGA as the sequence, how does the switch fluorescence ratio read?
A: 2.37

Q: TCAGGTGATA was tested. Which switch fluorescence ratio did it give?
A: 1.32

Q: How did the switch fluorescence ratio turn out when CTTTGGGTAA was run?
A: 1.02

Q: With GTCATAATGC as the sequence, how does the switch fluorescence ratio read?
A: 0.971

Q: How did the switch fluorescence ratio turn out when GAATGAGGTG was run?
A: 1.04

Q: How did the switch fluorescence ratio turn out when CCTTCTCTT was run?
A: 1.27

Q: How did the switch fluorescence ratio turn out when CTGCGACTCA was run?
A: 1.15

Q: TTTAAATTAT was tested. Which switch fluorescence ratio did it give?
A: 0.994

Q: With TAGAAATGC as the sequence, how does the switch fluorescence ratio read?
A: 1.46

Q: With TTAGTCGTTT as the sequence, how does the switch fluorescence ratio read?
A: 0.994

Q: How did the switch fluorescence ratio turn out when AGAGAAATGT was run?
A: 1.03

Q: For TGTCTTAAGA, which switch fluorescence ratio is on record?
A: 0.98

Q: CAGAAGCCGT was tested. Which switch fluorescence ratio did it give?
A: 1.01

Q: With TTGCAGATAG as the sequence, how does the switch fluorescence ratio read?
A: 1.82

Q: Which switch fluorescence ratio does the source give for GACATCTCAG here?
A: 1.02

Q: How did the switch fluorescence ratio turn out when ACTTAGTCAT was run?
A: 1.06

Q: Which switch fluorescence ratio does the source give for AGTAAGTGGT here?
A: 0.997

Q: With GAAGGGGGCC as the sequence, how does the switch fluorescence ratio read?
A: 1.03

Q: How did the switch fluorescence ratio turn out when AGAGCTGGTG was run?
A: 1.05

Q: Which switch fluorescence ratio does the source give for GCTGTTGCCT here?
A: 0.983

Q: GTTTTATTTA was tested. Which switch fluorescence ratio did it give?
A: 1.02

Q: TCATGGAGTC was tested. Which switch fluorescence ratio did it give?
A: 1.07

Q: GCTCGACCGG was tested. Which switch fluorescence ratio did it give?
A: 0.954

Q: GGTCAAGAAA was tested. Which switch fluorescence ratio did it give?
A: 0.948

Q: CAATTGCTAA was tested. Which switch fluorescence ratio did it give?
A: 1.03

Q: For TTGACATGCA, which switch fluorescence ratio is on record?
A: 1.09

Q: Which switch fluorescence ratio does the source give for AGGTAATATC here?
A: 1.09

Q: Which switch fluorescence ratio does the source give for TTGTGTCCAG here?
A: 0.95

Q: CGTTACGCCA was tested. Which switch fluorescence ratio did it give?
A: 1.06

Q: For TAGTAGTACT, which switch fluorescence ratio is on record?
A: 1.03

Q: TACTAGGTAC was tested. Which switch fluorescence ratio did it give?
A: 1.05

Q: Which switch fluorescence ratio does the source give for AAGGTTGCTT here?
A: 0.958

Q: With GCCCGTGTCA as the sequence, how does the switch fluorescence ratio read?
A: 1.01

Q: TACCCTAATG was tested. Which switch fluorescence ratio did it give?
A: 1.09

Q: GCAAGCTGGT was tested. Which switch fluorescence ratio did it give?
A: 0.942
